Laboratory results: patent US20200181257A1 (Chugai, published 2020)

T1: human Fcγ receptor hFcgRIIa (H) (human, UniProt P12318 36-217)
T1 construct: also called FcγRIIa (type H); FcγIIA
T1 sequence: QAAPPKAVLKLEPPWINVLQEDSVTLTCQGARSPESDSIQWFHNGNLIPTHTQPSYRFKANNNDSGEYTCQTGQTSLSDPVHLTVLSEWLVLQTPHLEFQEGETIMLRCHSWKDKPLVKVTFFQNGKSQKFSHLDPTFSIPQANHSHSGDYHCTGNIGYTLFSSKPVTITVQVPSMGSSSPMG

T2: human Fcγ receptor hFcgRIIa (R) (human, UniProt P12318 36-217)
T2 construct: also called FcγRIIa (type R); FcγIIA
T2 chain: T1 sequence with H133R

T3: human Fcγ receptor hFcgRIIb (human, UniProt P31994 43-217, limits assumed)
T3 construct: Construct used in the SPR assay is not described; also called FcγRIIb; FcγIIB
T3 sequence: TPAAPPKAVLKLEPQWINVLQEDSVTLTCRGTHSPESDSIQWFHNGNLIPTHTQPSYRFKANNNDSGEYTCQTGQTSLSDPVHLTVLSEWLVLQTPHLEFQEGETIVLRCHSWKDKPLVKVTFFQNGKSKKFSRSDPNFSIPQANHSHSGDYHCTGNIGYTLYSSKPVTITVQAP

B1: TS56 (antibody)
heavy: QVQLQESGPGLVRPSQTLSLTCTVSGYSITSDHAWSWVRQPPGRGLEWIGYISYSGITTYNPSLKSRVTMLRDTSKNQFSLRLSSVTAADTAVYYCARSLARTTAMDYWGQGSLVTVSS[human IgG1 constant region with L309D (EU numbers) not shown]
light: DIQMTQSPSSLSASVGDRVTITCRASQDISSYLNWYQQKPGKAPKLLIYYTSRLHSGVPSRFSGSGSGTDFTFTISSLQPEDIATYYCQQGNTLPYTFGQGTKVEIKRTVAAPSVFIFPPSDEQLKSGTASVVCLLNNFYPREAKVQWKVDNALQSGNSQESVTEQDSKDSTYSLSSTLTLSKADYEKHKVYACEVTHQGLSSPVTKSFNRGEC
notes: anti-IL6R IgG1, G1d with L309D (EU)
B2: TS49 (antibody)
heavy: QVQLQESGPGLVRPSQTLSLTCTVSGYSITSDHAWSWVRQPPGRGLEWIGYISYSGITTYNPSLKSRVTMLRDTSKNQFSLRLSSVTAADTAVYYCARSLARTTAMDYWGQGSLVTVSS[human IgG1 constant region with T250W (EU numbers) not shown]
light: B1 light
notes: anti-IL6R IgG1, G1d with T250W (EU)
B3: TS60 (antibody)
heavy: QVQLQESGPGLVRPSQTLSLTCTVSGYSITSDHAWSWVRQPPGRGLEWIGYISYSGITTYNPSLKSRVTMLRDTSKNQFSLRLSSVTAADTAVYYCARSLARTTAMDYWGQGSLVTVSS[human IgG1 constant region with K360H (EU numbers) not shown]
light: B1 light
notes: anti-IL6R IgG1, G1d with K360H (EU)
B4: TS62 (antibody)
heavy: QVQLQESGPGLVRPSQTLSLTCTVSGYSITSDHAWSWVRQPPGRGLEWIGYISYSGITTYNPSLKSRVTMLRDTSKNQFSLRLSSVTAADTAVYYCARSLARTTAMDYWGQGSLVTVSS[human IgG1 constant region with P387E (EU numbers) not shown]
light: B1 light
notes: anti-IL6R IgG1, G1d with P387E (EU)
B5: TS57 (antibody)
heavy: QVQLQESGPGLVRPSQTLSLTCTVSGYSITSDHAWSWVRQPPGRGLEWIGYISYSGITTYNPSLKSRVTMLRDTSKNQFSLRLSSVTAADTAVYYCARSLARTTAMDYWGQGSLVTVSS[human IgG1 constant region with L309R (EU numbers) not shown]
light: B1 light
notes: anti-IL6R IgG1, G1d with L309R (EU)
B6: TS44 (antibody)
heavy: QVQLQESGPGLVRPSQTLSLTCTVSGYSITSDHAWSWVRQPPGRGLEWIGYISYSGITTYNPSLKSRVTMLRDTSKNQFSLRLSSVTAADTAVYYCARSLARTTAMDYWGQGSLVTVSS[about 350 residues not shown]
light: B1 light
notes: anti-IL6R IgG1, G1d with P247V (EU)
B7: TS51 (antibody)
heavy: QVQLQESGPGLVRPSQTLSLTCTVSGYSITSDHAWSWVRQPPGRGLEWIGYISYSGITTYNPSLKSRVTMLRDTSKNQFSLRLSSVTAADTAVYYCARSLARTTAMDYWGQGSLVTVSS[human IgG1 constant region with S298G (EU numbers) not shown]
light: B1 light
notes: anti-IL6R IgG1, G1d with S298G (EU)
B8: TS63 (antibody)
heavy: QVQLQESGPGLVRPSQTLSLTCTVSGYSITSDHAWSWVRQPPGRGLEWIGYISYSGITTYNPSLKSRVTMLRDTSKNQFSLRLSSVTAADTAVYYCARSLARTTAMDYWGQGSLVTVSS[human IgG1 constant region with M428H (EU numbers) not shown]
light: B1 light
notes: anti-IL6R IgG1, G1d with M428H (EU)
B9: TS8 (antibody)
heavy: QVQLQESGPGLVRPSQTLSLTCTVSGYSITSDHAWSWVRQPPGRGLEWIGYISYSGITTYNPSLKSRVTMLRDTSKNQFSLRLSSVTAADTAVYYCARSLARTTAMDYWGQGSLVTVSS[human IgG1 constant region with K326A A330Y (EU numbers) not shown]
light: B1 light
notes: anti-IL6R IgG1, G1d with K326A/A330Y (EU); also called TS08
B10: TS10 (antibody)
heavy: QVQLQESGPGLVRPSQTLSLTCTVSGYSITSDHAWSWVRQPPGRGLEWIGYISYSGITTYNPSLKSRVTMLRDTSKNQFSLRLSSVTAADTAVYYCARSLARTTAMDYWGQGSLVTVSS[human IgG1 constant region with L234K L235R (EU numbers) not shown]
light: B1 light
notes: anti-IL6R IgG1, G1d with L234K/L235R (EU)
B11: TS11 (antibody)
heavy: QVQLQESGPGLVRPSQTLSLTCTVSGYSITSDHAWSWVRQPPGRGLEWIGYISYSGITTYNPSLKSRVTMLRDTSKNQFSLRLSSVTAADTAVYYCARSLARTTAMDYWGQGSLVTVSS[human IgG1 constant region with L234R L235K (EU numbers) not shown]
light: B1 light
notes: anti-IL6R IgG1, G1d with L234R/L235K (EU)
B12: TS12 (antibody)
heavy: QVQLQESGPGLVRPSQTLSLTCTVSGYSITSDHAWSWVRQPPGRGLEWIGYISYSGITTYNPSLKSRVTMLRDTSKNQFSLRLSSVTAADTAVYYCARSLARTTAMDYWGQGSLVTVSS[human IgG1 constant region with L234R L235R (EU numbers) not shown]
light: B1 light
notes: anti-IL6R IgG1, G1d with L234R/L235R (EU)

molecular target: T1, human Fcγ receptor hFcgRIIa (H); experiment: SPR, antibody captured on Protein A
Procedure: (§1) Furthermore, binding ability to hFcgRs was measured by the method described in Reference Example 3.
(§2) Interactions between antibodies and hFcgRs (hFcgRIa, hFcgRIIa(R), hFcgRIIa(H), hFcgRIIb, hFcgRIIIa(F), and hFcgRIIIa(V)) were analyzed using Biacore T100 (GE Healthcare). HBS-EP+(GE Healthcare) was used for the running buffer, and the measurement temperature was set at 25° C. Protein A (Invitrogen) was immobilized by the amino coupling method, and an antibody of interest was captured thereon. Then, hFcγR solutions diluted using the running buffer were injected to allow interaction with the captured antibody at a flow rate of 30 μL/min for five minutes for hFcγRIa, and at a flow rate of 5 μL/min for one minute for the other hFcγRs. […] Since the hFcγR binding level depends on the amount of captured antibodies, the FcgR-binding levels were corrected so that the capture level of each antibody would be 200 RU (resonance unit) for hFcgRIa and 1000 RU (resonance unit) for the other hFcgRs. The captured antibodies were washed by allowing 10 mM glycine-HCl (pH 1.5) to react for 30 seconds at a flow rate of 30 μL/min to recycle the chip for reuse.

Going from B1 to B2, the “binding relative to G1 (=100)” value rises from 79.2 to 127.

First: B3
Second: B4
The “binding relative to G1 (=100)” value of the first is higher: 105 for the first, 102 for the second.

Going from B5 to B6, the “binding relative to G1 (=100)” value rises from 98.1 to 110.

Compared with B7, B8 is higher in “binding relative to G1 (=100)” value: 27.4 for the first, 102 for the second.

Molecular target: T2, human Fcγ receptor hFcgRIIa (R)
Experiment: SPR, antibody captured on Protein A
Procedure: as §1, §2

First: B1
Second: B2
The “binding relative to G1 (=100)” value of the first is lower: 76.7 for the first, 124 for the second.

First: B3
Second: B4
The “binding relative to G1 (=100)” value of the first is higher: 103 for the first, 99.7 for the second.

Compared with B5, B6 is higher in “binding relative to G1 (=100)” value: 97 for the first, 103 for the second.

First: B7
Second: B8
The “binding relative to G1 (=100)” value of the first is lower: 55.8 for the first, 102 for the second.

molecular target: T3, human Fcγ receptor hFcgRIIb; experiment: SPR, antibody captured on Protein A
Procedure: as §1, §2

Going from B1 to B2, the “binding relative to G1 (=100)” value rises from 74.3 to 148.

Compared with B3, B4 is lower in “binding relative to G1 (=100)” value: 99.7 for the first, 95.6 for the second.

First: B5
Second: B6
The “binding relative to G1 (=100)” value of the first is lower: 97.8 for the first, 113 for the second.

Going from B7 to B8, the “binding relative to G1 (=100)” value rises from 40.8 to 108.

molecular target: T4, human Fcγ receptor hFcgRIIIa (V) (human, UniProt P08637 partial chain); experiment: SPR, antibody captured on Protein A
T4 construct: also called FcγRIIIa allotype V158; FcγIIIA
Procedure: as §1, §2

Going from B1 to B2, the “binding relative to G1 (=100)” value rises from 69.1 to 96.9.

First: B3
Second: B4
The “binding relative to G1 (=100)” value of the first is higher: 94.2 for the first, 91.7 for the second.

First: B5
Second: B6
The “binding relative to G1 (=100)” value of the first is lower: 86.2 for the first, 103 for the second.

Going from B7 to B8, the “binding relative to G1 (=100)” value rises from 58.9 to 90.3.

molecular target: T5, human Fcγ receptor hFcgRIa (human, UniProt P12314 16-292, limits assumed); experiment: SPR, antibody captured on Protein A
T5 construct: Construct used in the SPR assay is not described; also called hFcγRIa; FcγI
Procedure: as §1, §2

First: B1
Second: B2
The “binding relative to G1 (=100)” value of the first is lower: 67 for the first, 99.6 for the second.

First: B3
Second: B4
The “binding relative to G1 (=100)” value of the first is higher: 105 for the first, 101 for the second.

B5 and B6 are the same in “binding relative to G1 (=100)” value: 101 for the first, 101 for the second.

Going from B7 to B8, the “binding relative to G1 (=100)” value falls from 99.2 to 98.6.

molecular target: T1, human Fcγ receptor hFcgRIIa (H); experiment: SPR, antibody captured on Protein A; remark: another data set of the same source
Procedure: (§3) The CH2 domain, which was modified in this examination, is known to be involved in interaction with several human Fcγ receptors (hereinafter denoted as hFcgRs) which affect effector functions. Therefore, the binding of TS1 and TS19 prepared by using the H chain of anti-IL6R produced in Example 2 to hFcgRs was measured, according to the method described in Reference Example 3.
as §2

Compared with B9, B10 is lower in “binding relative to G1 (=100)” value: 101 for the first, 0.7 for the second.

Going from B11 to B12, the “binding relative to G1 (=100)” value falls from 1.3 to 0.9.

Molecular target: T2, human Fcγ receptor hFcgRIIa (R)
Experiment: SPR, antibody captured on Protein A
Remark: another data set of the same source
Procedure: as §3, §2

First: B9
Second: B10
The “binding relative to G1 (=100)” value of the first is higher: 120 for the first, 1.4 for the second.

Compared with B11, B12 is lower in “binding relative to G1 (=100)” value: 1.5 for the first, 0.6 for the second.

molecular target: T3, human Fcγ receptor hFcgRIIb; experiment: SPR, antibody captured on Protein A; remark: another data set of the same source
Procedure: as §3, §2

Going from B9 to B10, the “binding relative to G1 (=100)” value falls from 132 to 3.

Compared with B11, B12 is lower in “binding relative to G1 (=100)” value: 3.4 for the first, 2.8 for the second.

molecular target: T4, human Fcγ receptor hFcgRIIIa (V); experiment: SPR, antibody captured on Protein A; remark: another data set of the same source
Procedure: as §3, §2

T4 sequence (P08637 other isoform, or with tags, fused parts or gaps limits assumed): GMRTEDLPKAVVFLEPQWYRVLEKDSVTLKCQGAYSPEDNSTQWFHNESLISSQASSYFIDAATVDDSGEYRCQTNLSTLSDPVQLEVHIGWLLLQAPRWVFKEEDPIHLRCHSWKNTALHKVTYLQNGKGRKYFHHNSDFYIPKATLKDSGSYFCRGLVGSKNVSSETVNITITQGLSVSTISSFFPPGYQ

Going from B9 to B10, the “binding relative to G1 (=100)” value falls from 124 to 1.1.

Going from B11 to B12, the “binding relative to G1 (=100)” value falls from 1.4 to 1.1.

molecular target: T5, human Fcγ receptor hFcgRIa; experiment: SPR, antibody captured on Protein A; remark: another data set of the same source
Procedure: as §3, §2

T5 sequence (P12314 16-292 limits assumed): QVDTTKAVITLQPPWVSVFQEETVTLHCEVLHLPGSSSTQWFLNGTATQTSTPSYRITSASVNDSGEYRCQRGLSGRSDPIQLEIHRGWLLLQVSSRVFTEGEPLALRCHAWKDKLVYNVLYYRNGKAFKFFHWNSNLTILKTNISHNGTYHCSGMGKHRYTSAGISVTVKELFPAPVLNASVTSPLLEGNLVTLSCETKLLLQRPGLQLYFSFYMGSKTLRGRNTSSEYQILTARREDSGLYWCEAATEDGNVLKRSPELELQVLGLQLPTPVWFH

Going from B9 to B10, the “binding relative to G1 (=100)” value falls from 102 to 0.2.

Compared with B11, B12 is lower in “binding relative to G1 (=100)” value: -0.2 for the first, -1 for the second.

Where a chain is given by its changes, count along the chain named. Names may count otherwise.
